Measured values as given in paper PMC12457599, “Targeting Acinetobacter baumannii lipase by coniferous species through metabolomics supported approach” (Scientific Reports, 2025).

Test system: A. baumannii lipolytic activity
Conditions: ratio of IC50 values
Source text: Lipolytic inhibition (%) = 100 - remaining lipolytic activity.

For `O=c1cc(-c2ccc(O)cc2)oc2c(-c3c(O)cc(O)c4c(=O)cc(-c5ccc(O)cc5)oc34)c(O)cc(O)c12` [Cupressuflavone (C4), cupressuflavone], the “times more potent against A. baumannii lipases compared to orlistat” value was “approximately 3.89 times”.
